Data from PMC3829406, “Structure, Folding Dynamics, and Amyloidogenesis of D76N β2-Microglobulin” (The Journal of Biological Chemistry, 2013).

Biological target: the molecule itself
Assay: thioflavin T fluorescence of fibril formation + atomic force microscopy; 40 μM β2m, 25 mM sodium phosphate pH 7.4, 10 μM ThT, 37 °C, stirred, air-water interface present, no seeds; self-association into oligomers and amyloid fibrils

B1: D76N β2-microglobulin (natural protein)
chain: not shown
notes: β2-microglobulin, human, naturally occurring variant D76N; also called D76N variant; variant β2m
B1: binds.
